# Some of the results follow.
# Legend:
# Test in all cases: glycan array binding signal (z-score within array); higher = stronger binding
# Conditions in all cases: glycan notation: IUPAC condensed, linker removed
# [1] = target: Neu5Ac(a2-6)GlcNAc(b1-4)GlcNAc
# How it was run: (§1)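 Glycan array data came from 3228 arrays in the Consortium for Functional Glycomics database, and only arrays with an available protein sequence were kept. Glycan names were put into IUPAC-condensed notation, and columns mapping to the same glycan were averaged. The binding signal is a within-array Z-score, averaged across arrays of one protein sequence run at different concentrations or buffers and across linkers. A negative Z-score can be read as non-binding.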
# [2] = target: Neu5Ac(a2-6)GlcNAc(b1-4)GlcNAc(b1-4)GlcNAc
# How it was run: as §1
# Neu5Ac(a2-8)Neu5Ac = target: Neu5Ac(a2-8)Neu5Ac
# How it was run: as §1
# [3] = target: Neu5Ac(a2-8)Neu5Ac(a2-3)Gal(b1-3)GalNAc(b1-4)[Neu5Ac(a2-3)]Gal(b1-4)Glc
# How it was run: as §1
# [4] = target: Neu5Ac(a2-8)Neu5Ac(a2-3)Gal(b1-3)GalNAc(b1-4)[Neu5Ac(a2-8)Neu5Ac(a2-3)]Gal(b1-4)Glc
# How it was run: as §1
# [5] = target: Neu5Ac(a2-8)Neu5Ac(a2-3)Gal(b1-4)Glc
# How it was run: as §1
# [6] = target: Neu5Ac(a2-8)Neu5Ac(a2-3)Gal(b1-4)GlcNAc
# How it was run: as §1
# [7] = target: Neu5Ac(a2-8)Neu5Ac(a2-3)[Gal(b1-3)GalNAc(b1-4)]Gal(b1-4)Glc
# How it was run: as §1
# [8] = target: Neu5Ac(a2-8)Neu5Ac(a2-3)[GalNAc(b1-4)]Gal(b1-4)Glc
# How it was run: as §1
# [9] = target: Neu5Ac(a2-8)Neu5Ac(a2-8)Neu5Ac
# How it was run: as §1
# [10] = target: Neu5Ac(a2-8)Neu5Ac(a2-8)Neu5Ac(a2-3)Gal(b1-4)Glc
# How it was run: as §1
# [11] = target: Neu5Ac(a2-8)Neu5Ac(a2-8)Neu5Ac(a2-3)[Gal(b1-3)GalNAc(b1-4)]Gal(b1-4)Glc
# How it was run: as §1
# [12] = target: Neu5Ac(a2-8)Neu5Ac(a2-8)Neu5Ac(a2-3)[GalNAc(b1-4)]Gal(b1-4)Glc
# How it was run: as §1
# [13] = target: Neu5Ac(a2-8)Neu5Ac(a2-8)Neu5Ac(a2-8)Neu5Ac(a2-3)[GalNAc(b1-4)]Gal(b1-4)Glc
# How it was run: as §1
# [14] = target: Neu5Ac(a2-8)Neu5Gc(a2-3)Gal(b1-4)GlcNAc
# How it was run: as §1
# [15] = target: Neu5Ac(b2-6)Gal(b1-4)GlcNAc
# How it was run: as §1
# Neu5Ac(b2-6)GalNAc = target: Neu5Ac(b2-6)GalNAc
# How it was run: as §1
# [16] = target: Neu5Ac9Ac(a2-3)Gal(b1-3)GlcNAc
# How it was run: as §1
# [17] = target: Neu5Ac9Ac(a2-3)Gal(b1-4)GlcNAc
# How it was run: as §1
# [18] = target: Neu5Ac9Ac(a2-6)Gal(b1-4)GlcNAc
# How it was run: as §1
# [19] = target: Neu5Gc(a2-3)Gal(b1-3)GlcNAc
# How it was run: as §1
# [20] = target: Neu5Gc(a2-3)Gal(b1-3)[Fuc(a1-4)]GlcNAc
# How it was run: as §1
# Neu5Gc(a2-3)Gal(b1-4)Glc = target: Neu5Gc(a2-3)Gal(b1-4)Glc
# How it was run: as §1
# [21] = target: Neu5Gc(a2-3)Gal(b1-4)GlcNAc
# How it was run: as §1
# [22] = target: Neu5Gc(a2-3)Gal(b1-4)GlcNAc(b1-3)Gal(b1-4)GlcNAc(b1-2)Man(a1-3)[Neu5Gc(a2-3)Gal(b1-4)GlcNAc(b1-3)Gal(b1-4)GlcNAc(b1-2)Man(a1-6)]Man(b1-4)GlcNAc(b1-4)GlcNAc
# How it was run: as §1
# [23] = target: Neu5Gc(a2-3)Gal(b1-4)[Fuc(a1-3)]GlcNAc
# How it was run: as §1
# [24] = target: Neu5Gc(a2-6)Gal(b1-4)GlcNAc
# How it was run: as §1
# Neu5Gc(a2-6)GalNAc = target: Neu5Gc(a2-6)GalNAc
# How it was run: as §1
# [25] = target: Neu5Gc(a2-8)Neu5Ac(a2-3)Gal(b1-4)GlcNAc
# How it was run: as §1
# [26] = target: Neu5Gc(a2-8)Neu5Gc(a2-3)Gal(b1-4)GlcNAc
# How it was run: as §1
# [27] = target: Neu5Gc(a2-8)Neu5Gc(a2-3)Gal(b1-4)GlcNAc(b1-3)Gal(b1-4)GlcNAc
# How it was run: as §1
# [28] = target: Neu5Gc(a2-8)Neu5Gc(a2-6)Gal(b1-4)GlcNAc
# How it was run: as §1
# [29] = target: Neu5Gc(b2-6)Gal(b1-4)GlcNAc
# How it was run: as §1
binder,measurement,setting,value
"AT1G73650(15) (Arabidopsis thaliana), F4HRY1 (protein) MGTVLDSHFLALTAIVTVIYQFIFFVITALFKFDQVTDFAGSTNFVILAVLTLVLKASWHFRQIVLTLLVVVWGLRLGIFLLMETRILQWGEDRRFDEQRGNIVRLIIFWTLQAVWVWTVSLPLTLVNASDGGGSLKPADVIGWTMETWVFGFLIEAAADQQKLSFKNSPENRGKWCDVGVWKYSRHPNYFGEMETLLWWGIFVAASPVLEGAEYLVIFGPLFLTLLLLFVSGIPLLEASADKKHGNSGAYRSYKKTTSPLILFPRGVYGNLPGWFKTVFLFEFPFYSRNLPQEGRLQNSKEKEVKDD",glycan array binding signal (z-score),[1],-0.41
same,glycan array binding signal (z-score),[2],0.507
same,glycan array binding signal (z-score),Neu5Ac(a2-8)Neu5Ac,0.266
same,glycan array binding signal (z-score),[3],0.136
same,glycan array binding signal (z-score),[4],-0.484
same,glycan array binding signal (z-score),[5],-0.556
same,glycan array binding signal (z-score),[6],-0.414
same,glycan array binding signal (z-score),[7],0.034
same,glycan array binding signal (z-score),[8],-0.359
same,glycan array binding signal (z-score),[9],2.92
same,glycan array binding signal (z-score),[10],0.091
same,glycan array binding signal (z-score),[11],-0.348
same,glycan array binding signal (z-score),[12],0.181
same,glycan array binding signal (z-score),[13],-0.213
same,glycan array binding signal (z-score),[14],-0.532
same,glycan array binding signal (z-score),[15],-0.517
same,glycan array binding signal (z-score),Neu5Ac(b2-6)GalNAc,-0.519
same,glycan array binding signal (z-score),[16],-0.22
same,glycan array binding signal (z-score),[17],-0.644
same,glycan array binding signal (z-score),[18],-0.483
same,glycan array binding signal (z-score),[19],-0.436
same,glycan array binding signal (z-score),[20],-0.428
same,glycan array binding signal (z-score),Neu5Gc(a2-3)Gal(b1-4)Glc,-0.213
same,glycan array binding signal (z-score),[21],2.26
same,glycan array binding signal (z-score),[22],-0.412
same,glycan array binding signal (z-score),[23],0.085
same,glycan array binding signal (z-score),[24],-0.302
same,glycan array binding signal (z-score),Neu5Gc(a2-6)GalNAc,3.69
same,glycan array binding signal (z-score),[25],-0.694
same,glycan array binding signal (z-score),[26],-0.527
same,glycan array binding signal (z-score),[27],-0.394
same,glycan array binding signal (z-score),[28],-0.375
same,glycan array binding signal (z-score),[29],0.171

# Reference: the supplement of paper PMC8728848
